# Source: ChEMBL document CHEMBL4888484, “Replenishing the malaria drug discovery pipeline: Screening and hit evaluation of the MMV Hit Generation Library 1 (HGL1) against asexual blood stage Plasmodium falciparum ,using a nano luciferase reporter read-out” (2022)
# The campaign covered roughly 150,000 compounds. About 540 (0.36%) showed an effect of 50% or more. The list shows a part of the results.
# Test system: Plasmodium falciparum
# Test: Primary screen in NF54 nanoGlo assay, in single point, at 2uM, 72h; a lower Z score goes with more inhibition
# Type: functional, Erythrocyte
# Conditions: timepoint 72 hour
Compound,% Inhibition [%],Z score
Cn1ccc(C(=O)NC[C@H]2CCCO2)n1,3,-0.38
CCCn1nc(C)cc1CN(C)c1ccc(C(=O)O)cc1NS(=O)(=O)c1cccc(C)c1,-8,0.81
COc1c(C(=O)Nc2cccc(F)c2)oc2ccc(NC(=O)c3cc(C)cc(C)c3)cc12,-17,2
CC(C)(CNC(=O)C1CCCCC1)N1CCOCC1,-14,2.1
CC(C)c1cc(CNC(=O)c2cnc(-c3cccs3)nc2)no1,-5,0.44
CN1N=C(c2nc(C3(NC(=O)OC(C)(C)C)CCC3)no2)CCC1=O,-1,0.11
Cc1c(NC(=O)Nc2ccc3c(c2)OCCO3)cnn1C,-7,0.66
O=C(NCCn1cc(Cl)cn1)[C@H]1CCc2ccccc2C1,-5,0.86
COc1ccc2ncn(CCCc3csc(N)n3)c(=O)c2c1,-15,1.97
CC(F)(F)C(C)(C)NC(=O)c1ncccc1F,1,-0.22
Cc1nscc1C(=O)NCCN1CC2CCC(C1)O2,-4,0.56
Cc1ccc2c(c1)N[C@H](C(=O)N1CCN(c3cccc(Cl)c3)CC1)NS2(=O)=O,-7,1.41
COc1ccc(N2CCN(C(=O)c3nn(-c4ccc(Cl)cc4)c(=O)n(C)c3=O)CC2)cc1,1,-0.06
COc1ccc(CCNC(=O)Cn2cc(C(=O)c3ccncc3)c(=O)c3cc(C)c(F)cc32)cc1OC,-3,0.42
COCCOCCCC(=O)NC[C@@H](c1ccc(C)cc1)N1CCCC1,4,-0.34
O=C(Nc1ccc2c(c1)OCO2)N(Cc1cccnc1)C1CCCCC1,-11,1.45
O=C(Nc1cccc(-c2noc(-c3cncc(C(F)(F)F)c3)n2)c1)c1ccco1,0,-0.01
CC(C)(C)c1cc(CNc2cc(-c3ccncc3)nc3ccnn23)[nH]n1,0,-0.03
CC1(C)COCCN1C(=O)CCCC(=O)N1CCOCC1(C)C,-9,1.2
COc1ccc(N2C(=O)CN(S(C)(=O)=O)C[C@@]2(C)C(=O)NC2CCCCCCC2)c(OC)c1,1,-0.12
CCOCCC1(Cn2nnnc2N(C)Cc2cnn(C)c2)CCC1,-11,1.46
O=C(Cn1cccn1)Nc1cccc(N2CCCC2=O)c1,-2,0.34

Compound,% Inhibition [%],Z score
Cc1cc(C)n(C(=O)CNc2ccc(C)c(C)c2)n1,-10,1.35
CCOc1cccc(-c2ccc3nc(-c4cccc(OC)c4)c(CCC(=O)NC4CC4)n3c2)c1,4,-0.75
CCN(CC)c1ccc2c(c1)Oc1cc(N(CC)CC)ccc1C21c2ccccc2C(=O)N1c1ccccc1,3,-0.67
COc1ccc(Cl)cc1NC(=O)N(C)Cc1nc2cc(C(=O)NC(C)C)ccc2n1C,-15,1.73
CCCn1ncnc1-c1cccc(C(=O)N(C)C2CCN(C)CC2)c1,-5,0.56
CC1CC(CC(=O)NCC2(O)CCS(=O)(=O)CC2)CC(C)(C)C1 (stereo not given),-11,2.24
Cn1ncnc1CN1CCOC[C@@H](C2CCC2)C1,17,-2.2
N#Cc1nccnc1NC[C@@H](CO)Cc1ccccc1Cl,-13,1.41
COc1cnc([C@@H]2CCCN2c2nccc(C)n2)[nH]c1=O,-7,1.38
CN(C)c1ccc(NC2CCC(NC(=O)OC(C)(C)C)CC2)cn1 (stereo not given),5,-0.66
CCn1cc(CN(Cc2nnc(C)o2)CC(C)C)cn1,1,-0.29
O=C(NCCc1ccccc1)C(=O)Nc1cccc(N2CCCC2=O)c1,-17,2.6
CCN(CC)CCOc1c(Cl)cccc1Cl,13,-1.62
Fc1ccc(-c2nnc(-c3ccc(-n4ccnc4)nc3)o2)cc1,-8,0.99
COC(=O)c1cc(CNc2nc(C)nc(C)c2F)ccn1,-4,0.44
OCCn1nc(-c2ccncc2)nc1Cc1ccc(F)c(F)c1F,-7,1.27
O=C(NCCCCO)Nc1csnc1-c1ccccc1,-11,1.47
O=C1[C@@H]2CC[C@@H](CN(c3nnc(-c4ccccc4)s3)C2)N1CC1CC1,15,-1.96
CC(C)CN(CC(=O)N(CCc1ccccc1)Cc1ccco1)C(=O)Cc1ccccc1,5,-0.46
Cc1nn(-c2ccccc2)c(=O)n1CC(=O)NCCCOc1cccnc1,-9,1.56
CC(C)NC(=O)N(Cc1ccccc1OS(C)(=O)=O)CC1CC1,-6,0.8
COc1ccccc1N1C(=O)c2cc(C)nn2C[C@@]1(C)C(=O)NCc1ccc(Cl)cc1,-3,0.55

Compound,% Inhibition [%],Z score
Cc1ccc(S(=O)(=O)N2CCC(F)(c3nc(CC(C)C)no3)CC2)cc1F,-5,1.02
CC(C)n1cc(NC(=O)c2ccc(Cl)cn2)cn1,-13,2.2
Cc1ccn(CCC(=O)N[C@@H](C)c2c(C)n[nH]c2C)n1,-13,1.68
Cn1nnc2c[n+](CC(=O)c3ccc4ccccc4c3)cc(Br)c21,-2,0.18
CC1CCN(C(=O)NCCNC(=O)C(C)(C)C)CC1C (stereo not given),-10,1.69
CC(O)CN1CCN(C(C)C(=O)N2CCCCCC2)CC1C (stereo not given),-8,1.22
Nc1ccc(Cc2nc3c(s2)CCCC3)cc1,-4,0.48
O=C(O)Cn1cc(C=Cc2nc(-c3ccccc3)cs2)nn1,-2,0.18
CCn1ncc(-c2csc(NC(=O)c3cc(C4CC4)[nH]n3)n2)c1C,1,-0.12
O=C(Nc1ccon1)c1csc2c1CCCC2,6,-0.65
Cc1cccc(N2CCN([C@H]3CCC(=O)N(CCCC(C)C)CC3)CC2)c1C,-11,1.27
Cc1c(Cl)ccc2c(C(=O)N3CCOCC3)cc(-c3ccc4c(c3)OCO4)nc12,-12,1.71
Cc1cccnc1-c1nc(-c2cccc(-n3c(C)c[nH]c3=O)c2)no1,-7,0.87
CC[C@]1(CO)CCCN(C(=O)C2CCc3ccccc3CC2)C1,-1,0.19
CC(C)COc1ncc(C(=O)N2CC(=O)N[C@@H](C)C2)cc1Cl,7,-1
CCCNS(=O)(=O)c1ccc(C(=O)N2C[C@H]3CC[C@@H](C2)N(C)C3)cc1,-7,1.2
CCS(=O)(=O)C1CCN(Cc2cn(-c3ccc(F)c(Cl)c3)nn2)CC1,8,-0.85
CC(C)(C)OC(=O)NC[C@H]1CCN(CCOc2cccc(C#N)c2)C1,-10,0.91
CC(=O)c1ccc(CNc2cnc3ccccc3n2)nc1C,-7,0.88
Cc1cc(N2CC[C@@]3(O)CCCC[C@H]3C2)nc(N)n1,-8,1.39
N#Cc1nccnc1O[C@H]1CCN(C(=O)Cc2c[nH]c3ccccc23)C1,2,-0.24
C[C@H]1CN(c2nnc(Cc3ccn[nH]3)n2CC(C)(C)C)CCO1,-4,0.61

Compound,% Inhibition [%],Z score
Cc1n[nH]c([C@H]2CN(C(=O)OCC(F)(F)F)C[C@@H]2C2CC2)n1,26,-4.22
CNc1nc(NC[C@H]2CCN(C3CCCCC3)C2)ncc1F,-8,1.17
CNS(=O)(=O)CCC(=O)N[C@@H](C)Cc1ccc(C)s1,-7,0.75
O=C(NCCOCCN1C(=O)CCC1=O)c1ccoc1,-7,1.17
Nc1c(C(=O)NC2CCCC2)sc2ncccc12,-4,0.62
O=C(C1Cc2ccccc2C1)N1C[C@@H]2NCCO[C@H]2C1,-6,0.53
O=C(c1cc(-c2ccccc2)[nH]n1)N1CCO[C@H](c2ccccc2)C1,4,-0.6
O=C1C[C@@H](c2ccc[nH]c2=O)c2c(ccc3nn(-c4ccc(F)cc4)nc23)N1,0,0.02
COCCN1CCCCC[C@H](O)c2cc(C(=O)N(C)CCCc3c(C)nn(C)c3C)ccc21,-8,1.47
C[C@@H](c1ccc(Cl)cc1Cl)N(C)CC(N)=O,-9,0.85
CC(C)[C@H](C)N(Cc1cnc2ncccn12)C1CC1,-8,1.35
CCNC(=O)C(C)N1C(=O)C2(CCN(CC(C)CC)CC2)Nc2ccccc21 (stereo not given),-1,0.1
CN(C)c1ccc(NC(=O)C(=O)NCCC(c2ccccc2)c2ccccc2)cc1,0,-0.01
O=C(CCc1cc(Cl)ccc1Br)NC(CO)CO,-6,0.72
Cc1c(C)n(C[C@H](O)CN2CCOCC2)c2ccc(F)cc12,-8,1.04
CCOC(=O)N1CCc2c(nc(-c3ccc(F)cc3)n(CC(=O)Nc3ccc(Cl)cc3)c2=O)C1,34,-3.88
CC(=O)N1CCC(Cc2ccc(C(=O)N3CCCc4ccccc43)cc2)CC1,-12,2.14
CC(C)n1ccc2cc(C(=O)N3CCN(S(C)(=O)=O)CC3)ccc21,-9,1.23
CC1(C)[C@@H](Nc2ncncc2C#N)[C@@H]1c1ccccc1,-2,0.46
